# From PubChem BioAssay AID686978 (National Center for Advancing Translational Sciences (NCATS), 2013)
# Several values for one entry are separate records, joined by “and”; a condition that tells them apart may be missing. Equal entries are not always repeated. Out of some 420,000 compounds screened, about 64,000 (15%) were called active. The shares of active, inactive and inconclusive entries below differ from those in the screen. The call rests on the fitted dose curve; in most records, active means well fitted inhibition curve with a large enough effect; inconclusive means small, poorly fitted or top-dose-only effect; inactive means flat fitted curve, though single readings scatter. A potency beside an inconclusive call is a rough fit, not a confirmed value.
# Experiment: qHTS for Inhibitors of human tyrosyl-DNA phosphodiesterase 1 (TDP1): qHTS in cells in absence of CPT; further: nearly all actives have a fitted effect of over 55% in size
# Details: DT40 Tdp1-/- hTDP1 cells, no CPT, ATP luminescence, 48 h; activity change, negative = growth inhibition: at 46.2 µM (top of the series)
# In short: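 Camptothecin absent (DMSO only). Human TDP1-complemented DT40 knockout cells, 400 cells/well, 37 °C for minimum 48 hr; ATP measured via CellTiter-Glo, 30 min dark incubation, luminescence.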
# On the % scale 0 is the no-effect control and ±100 the full control effect; potency means the concentration at half of the fitted maximal effect; tags describe the fitted curve by direction and shape.
Compound,Potency,"activity change, negative = growth inhibition"
CCOC(=O)C1CCCN(C(=O)Cn2nc(CC)n3c(cc4sccc43)c2=O)C1 (configuration not stated),"inconclusive: 23.1 µM [inhibitor, partial curve, poor fit]",
COc1ccc2c(c1)C(c1ccc(N3CCOCC3)cc1)=NNC(c1cccnc1)=N2,"inconclusive: 9.2 µM [inhibitor, partial curve, poor fit]",
COc1ccc(C2=Nn3c(nnc3-c3ccccc3OC)SC2)cc1OC,active: 70.8 nM and active: 5.8 nM,
CCC(c1nnnn1Cc1ccccc1)N(Cc1ccco1)Cc1cc2cc(OC)ccc2[nH]c1=O (configuration not stated),active: 20.6 µM,
O=C(COC(=O)c1ccc2ccccc2n1)Nc1ccccc1F,inactive,
Cc1ccc(-n2c(=O)c3cc4c(=O)n(-c5ccc(C)c(C)c5)c(=O)c4c(C(=O)c4ccc(C(=O)O)cc4)c3c2=O)cc1C,inactive,
CCC(Cn1nnc2ccccc2c1=O)NC(=O)Nc1ccc(C)c(C)c1 (configuration not stated),"inconclusive: 20.6 µM [inhibitor, partial curve]",
CC(C)NC(=O)N(C)C[C@H]1Oc2ccc(NC(=O)CCN3CCOCC3)cc2C(=O)N([C@H](C)CO)C[C@@H]1C,inactive,
Cc1ccc(C)c(N2N=C(C(=O)OCc3nnc(-c4ccccc4)o3)CCC2=O)c1,inactive,
CC(C)COc1ccc(C(=O)N(Cc2ccc(N(C)C)cc2)Cc2ccco2)cc1,active: 14.6 µM,
CCc1ccc(NC(=O)CCS(=O)(=O)c2ccc3c(c2)n(C)c(=O)c(=O)n3C)cc1,inactive,
Cc1ccc(/C=C/c2nc3ccccc3[nH]2)cc1,active: 13 µM,
O=C(NCCCn1ccnc1)/C(=C/c1ccccc1)NC(=O)c1ccccc1,"inconclusive: 16.4 µM [inhibitor, single point]",
CCOc1cc2c(cc1O)C(=NOC)CC1C2CCC2(C)C(O)CCC12 (configuration not stated),active: 0.82 µM,
O=[N+]([O-])c1ccc(N/N=C/c2c[nH]c3ccccc23)c(S(=O)(=O)Nc2ccc(Cl)cc2)c1,active: 23.1 µM,
CC1CCCCN1c1nnc(NC(=O)Nc2ccccc2F)s1 (configuration not stated),active: 20.6 µM,
Cc1ccc(OCc2nc3ccccc3n2CCOc2ccc(Cl)cc2)cc1,active: 18.4 µM,
N#C/C(=C\c1coc2ccc(O)cc2c1=O)C(=O)Nc1nc2ccccc2s1,"inconclusive: 16.4 µM [inhibitor, partial curve, poor fit]",
O=C(c1ccco1)c1cn(CCOc2ccc(F)cc2)c2ccccc12,"inconclusive: 25.9 µM [inhibitor, single point]",
CC1CCCN(C(=O)c2cc3c(Cl)nc4ccccc4c3s2)C1 (configuration not stated),"inconclusive: 20.6 µM [inhibitor, single point]",
CS(=O)(=O)Nc1ccc(C2=NN(C(=O)c3ccco3)C(c3ccccc3)C2)cc1 (configuration not stated),"inconclusive: 25.9 µM [inhibitor, single point]",
CS(=O)(=O)CCC(C(=O)Nc1cccc(C(F)(F)F)c1)N1Cc2ccccc2C1=O (configuration not stated),inactive,
COc1cccc(NC(=O)CN(C)C(=O)/C=C/c2cn(-c3ccccc3)nc2-c2cccs2)c1,"inconclusive: 29.1 µM [inhibitor, single point]",

Compound,Potency,"activity change, negative = growth inhibition"
COc1ccc(-c2ccccc2)cc1NC(=O)c1cccs1,"inconclusive: 29.1 µM [inhibitor, single point]",
COc1ccc([C@@H]2C[C@@H](c3ccccc3)Oc3cc(OC)c(OC)c(OC)c32)cc1,"inconclusive: 23.1 µM [inhibitor, single point]",
CCOC(=O)/C=C/c1ccc(C(F)(F)F)cc1S(=O)(=O)NC(C)(C)C,"inconclusive: 17.8 µM [inhibitor, partial curve, poor fit] and inconclusive: 18.4 µM [inhibitor, single point]",
O=C(CCc1nnc(CCCCc2ccccc2)o1)N(CCO)Cc1ccccc1,"inconclusive: 20.6 µM [inhibitor, single point]",
NC(=O)N=Nc1c(O)n(Cc2ccccc2)c2ccc(Br)cc12,inactive,
O=C(O)c1cccc2c1C(=O)N(C1CCCCC1)C2,"inconclusive: 18.4 µM [inhibitor, single point]",
COc1cccc(NC(=O)CC(=O)c2ccc([N+](=O)[O-])cc2)c1,"inconclusive: 29.1 µM [inhibitor, single point]",
O=C(NC1CCS(=O)(=O)C1)c1ccc(-c2ccc(Br)cc2)o1 (configuration not stated),"inconclusive: 29.1 µM [inhibitor, single point]",
C/C(N)=C(/C#N)C(=O)CSc1nc2ccccc2[nH]1,"inconclusive: 35.5 µM [inhibitor, single point]",
Cn1c(=O)c(C(=O)Nc2ncccc2O)c(O)c2ccccc21,"inconclusive: 29.1 µM [inhibitor, single point]",
CC(C)c1ccc(NC(=O)Cn2c(=O)n(CCc3ccccc3)c(=O)c3ccccc32)cc1,"inconclusive: 23.1 µM [inhibitor, single point]",
COc1ccccc1NS(=O)(=O)c1cccc(C(=O)N/N=C(\C)c2ccc3c(c2)OCCO3)c1,,inconclusive: -30.1% [inhibitor]
O=C(CCS(=O)(=O)c1ccc(F)cc1)N1CCOCC1,inactive,
O=C(CSc1ccc(Cl)cc1)Nc1nnc(-c2ccco2)o1,"inconclusive: 14.6 µM [inhibitor, partial curve]",
CC(=O)N1CCN(C(=O)CSc2cc(C)c(Br)cc2C)CC1,"inconclusive: 29.1 µM [inhibitor, single point]",
CC(C)[C@H](NC(=O)c1ccccc1)C(=O)OCC(=O)c1ccc(S(=O)(=O)N2CCCCC2)cc1,inactive,
CCOc1ccc(S(=O)(=O)N2CCC(C(=O)Nc3cc(S(C)(=O)=O)ccc3Cl)CC2)cc1,"inconclusive: 29.1 µM [inhibitor, single point]",
C=CCc1cccc2cc(C(=O)N3CCN(C(=O)c4ccco4)CC3)c(=O)oc12,inactive,
CCCc1nc2ccccc2c(=O)n1/N=C/c1ccc(O)cc1,"inconclusive: 20.6 µM [inhibitor, single point]",
Cc1ccccc1-c1nc(-c2ccc(NC(=O)c3ccc4c(c3)OCO4)cc2)no1,"inconclusive: 20.6 µM [inhibitor, partial curve, poor fit]",
CC[C@@H]1[C@H]2CCCC(=O)N3CC[C@@H](C[C@@H]1OC(=O)Nc1ccc4c(c1)OCO4)[C@@H]23,"inconclusive: 22.4 µM [inhibitor, single point]",
CCCCc1cc(=O)oc2c(C)c(OCC(=O)N3CCCC3)ccc12,"inconclusive: 25.9 µM [inhibitor, single point]",
COc1ccc(NC(=O)c2c(NC(=O)CNCC(C)C)sc3c2CCC3)c(OC)c1,active: 6.51 µM,

Compound,Potency,"activity change, negative = growth inhibition"
Nc1nc(COC(=O)C2CC(=O)N(Cc3ccccc3Cl)C2)nc(Nc2ccccc2)n1 (configuration not stated),inactive,
CN(c1ccc(C(=O)NCC2CCCO2)cc1)S(=O)(=O)c1ccc(Cl)cc1 (configuration not stated),"inconclusive: 18.4 µM [inhibitor, single point]",
CCCN(CCC)S(=O)(=O)c1ccc(C(=O)N2CC3CCC(CC3)C2)cc1,active: 23.1 µM,
Cn1c(=O)n(Cc2ccc(F)cc2)c(=O)c2c1nc1n2CCN1Cc1ccco1,"inconclusive: 20.6 µM [inhibitor, single point]",
Cc1ccccc1OCC(O)Cn1c(=N)n(CCN2CCCCC2)c2ccccc21 (configuration not stated),active: 4.61 µM,
Cc1ccc(-c2nnc(Nc3cccc(O)c3)c3ccccc23)cc1S(=O)(=O)N1CCN(C)CC1,active: 18.4 µM,
COC(=O)c1ccc(CN2CCCC(CO)(Cc3ccc(F)cc3F)C2)cc1 (configuration not stated),"inconclusive: 29.1 µM [inhibitor, single point]",
O=C(COc1ccc(Cl)cc1Br)NC(=O)NC1CCCC1,inactive,
O=S(=O)(c1ccc(Oc2ncnc3scc(-c4ccccc4)c23)cc1)N1CCOCC1,active: 18.4 µM,
Cc1ccc(C(=O)Nc2cccc(-c3nc4ccccc4o3)c2)c(Cl)c1,inactive,
Cc1ccc(NC(=O)CC(C)S(=O)(=O)c2ccc3c(c2)NC(=O)CO3)cc1Cl (configuration not stated),active: 20.6 µM,
CCCCNc1c(-c2ccccn2)nc2nc(C)cc(C)n12,"inconclusive: 29.1 µM [inhibitor, single point]",
CCc1ccc(NC(=O)C(CC)n2c(=O)c(C(F)(F)F)nc3ccccc32)cc1 (configuration not stated),"inconclusive: 23.1 µM [inhibitor, single point]",
COc1ccc(/C=C/C(=O)OCC(=O)Nc2ccc(OC)c(S(=O)(=O)N3CCCCC3)c2)cc1,"inconclusive: 29.1 µM [inhibitor, single point]",
CC(C)OC(=O)c1ccc(COC(=O)c2cccc(-c3nnc(-c4ccccc4)o3)c2)cc1,"inconclusive: 29.1 µM [inhibitor, single point]",
Cc1ccc2c(c1)N=C(c1ccccc1)CC(C(Cl)Cl)=N2,"inconclusive: 18.4 µM [inhibitor, single point]",
CC1=C(C#N)C(C)(C)C(C#N)=C(C)N1,"inconclusive: 8.2 µM [inhibitor, partial curve, poor fit]",
Cc1nc2nc(SCC(=O)NCc3ccccc3Cl)nn2c(C)c1Cc1ccccc1,"inconclusive: 20.6 µM [inhibitor, single point]",
CCN([C@H](CO)CC(C)C)S(=O)(=O)c1ccccc1,"inconclusive: 14.6 µM [inhibitor, partial curve]",
O=C(NCCc1ccccc1)c1ccccc1C(=O)NCCc1ccccc1,"inconclusive: 29.1 µM [inhibitor, single point]",
Cc1ccc(C(C(=O)NC2CCCC2)N2CCCC(C)C2)cc1 (configuration not stated),"inconclusive: 29.1 µM [inhibitor, single point]",
